58 compounds from article PMC4336329 (PLoS ONE, 2015) can be followed below.

Out of some 310,000 compounds screened, about 2,200 (0.71%) showed an effect of 50% or more. Effects have a minus sign here. The list shows a part of the results.

human ether-à-go-go-related gene (hERG) potassium channel, sequence (Q12809 whole entry, looked up): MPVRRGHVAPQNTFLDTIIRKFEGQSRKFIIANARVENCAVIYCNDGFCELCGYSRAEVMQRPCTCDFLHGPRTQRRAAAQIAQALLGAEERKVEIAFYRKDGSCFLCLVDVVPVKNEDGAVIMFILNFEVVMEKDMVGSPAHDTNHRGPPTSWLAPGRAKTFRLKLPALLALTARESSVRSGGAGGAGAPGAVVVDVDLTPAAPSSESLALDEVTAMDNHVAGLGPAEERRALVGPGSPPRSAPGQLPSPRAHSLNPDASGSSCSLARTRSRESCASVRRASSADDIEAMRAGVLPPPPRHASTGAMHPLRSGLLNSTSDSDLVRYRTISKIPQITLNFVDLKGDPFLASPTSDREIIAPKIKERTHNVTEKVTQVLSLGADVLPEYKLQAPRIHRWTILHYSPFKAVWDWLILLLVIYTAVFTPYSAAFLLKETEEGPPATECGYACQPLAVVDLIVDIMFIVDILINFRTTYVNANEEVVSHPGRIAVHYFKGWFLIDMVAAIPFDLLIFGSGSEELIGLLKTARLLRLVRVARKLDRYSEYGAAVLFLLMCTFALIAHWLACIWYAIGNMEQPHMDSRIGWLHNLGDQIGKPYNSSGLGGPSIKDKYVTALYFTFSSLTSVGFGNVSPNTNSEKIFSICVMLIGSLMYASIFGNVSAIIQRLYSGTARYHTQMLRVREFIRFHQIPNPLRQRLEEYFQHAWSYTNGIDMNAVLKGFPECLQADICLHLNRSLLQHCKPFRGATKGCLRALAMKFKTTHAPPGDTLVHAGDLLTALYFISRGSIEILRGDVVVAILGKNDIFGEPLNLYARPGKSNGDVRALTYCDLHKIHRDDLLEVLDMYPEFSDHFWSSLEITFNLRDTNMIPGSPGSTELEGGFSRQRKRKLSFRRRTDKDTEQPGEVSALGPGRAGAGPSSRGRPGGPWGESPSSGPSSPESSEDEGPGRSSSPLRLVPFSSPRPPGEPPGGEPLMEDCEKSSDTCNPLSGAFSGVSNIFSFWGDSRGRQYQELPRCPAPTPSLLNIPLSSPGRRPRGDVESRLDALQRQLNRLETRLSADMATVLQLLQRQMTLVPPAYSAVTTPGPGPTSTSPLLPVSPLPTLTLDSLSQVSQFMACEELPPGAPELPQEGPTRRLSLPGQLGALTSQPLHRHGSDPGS

This experiment addresses human ether-à-go-go-related gene (hERG) potassium channel (human, UniProt Q12809). The experiment can be described thus: primary screen, population patch clamp on CHO cells stably expressing hERG.
For the compound `COc1ccc(N2CCN(c3ccc4nnc(CCC(=O)Nc5ccc(C)cc5)n4n3)CC2)cc1`, the “hERG current change (%, negative = inhibition) at 1uM” value is recorded as -27.8%. Under `Oc1ccccc1/C=N/NC(=S)NC1CC2CCC1C2` (stereo not shown) stands 15.7%; under `COc1ccc(C2NC(=O)CS2)cc1OC` (stereo not shown), 4.78%. Then `Cn1c(Cc2csc(N)n2)nnc1SC/C=C/c1ccccc1`, with 0.144%. On to `c1coc(CNc2nc3sc4c(c3c3ncnn23)CCCC4)c1`, for which the “hERG current change (%, negative = inhibition) at 1uM” value came to 16.6%. Turning to `CCOc1ncccc1C(=O)Nc1nc(SC)ns1`, the “hERG current change (%, negative = inhibition) at 1uM” value turned out to be 8.23%. Then `COc1cccc(NC(=O)CCc2nnc3ccc(N4CCN(c5cccc(OC)c5)CC4)nn23)c1`, with 13.9%. In the case of `S=C(NCC1CCCO1)N1CCN(c2ccccc2)CC1` (stereo not shown), the “hERG current change (%, negative = inhibition) at 1uM” value is listed as 15.4%. For the compound `O=C(N/N=C\c1ccc[nH]1)c1cncc(Br)c1`, the “hERG current change (%, negative = inhibition) at 1uM” value came to 13.6%. Regarding `Cc1ccc(S(=O)(=O)Nc2cc(C)on2)cc1`, the “hERG current change (%, negative = inhibition) at 1uM” value is on record as 14.5%. Consider `COc1cc(NC(=O)COC(=O)c2nc3nc(C)cc(C)n3n2)cc(OC)c1`, for which the “hERG current change (%, negative = inhibition) at 1uM” value is on record as 1.87%.

As for `Cc1ccc(S(=O)(=O)Nc2nnc(C3CCCCC3)s2)cc1`, the “hERG current change (%, negative = inhibition) at 1uM” value amounted to 12.4%.

`CC(=O)c1ccc(-n2nnnc2SCC(=O)NC2CCCCC2)cc1`: the “hERG current change (%, negative = inhibition) at 1uM” value amounted to 7.29%. Then `N#Cc1c(-c2ccc(C(F)(F)F)cc2)cc(-c2ccccc2)[nH]c1=S`, with 2.72%; and `Cc1ccc(C23CC4CC(CC(C(=O)OCC(=O)N(C)C)(C4)C2)C3)cc1`, with 11.5%; and `c1cncc(-c2nn3cnnc3s2)c1`, with 10.9%. `O=C(Cn1nnc2ccccc2c1=O)Nc1cccc(S(=O)(=O)N2CCOCC2)c1`: the “hERG current change (%, negative = inhibition) at 1uM” value is reported as 1.48%. Take `O=C(Nc1ccc(Cl)cc1C(=O)Nc1ccc(Br)cn1)c1ccco1`: the “hERG current change (%, negative = inhibition) at 1uM” value was found to be 2.46%.

As for `CN=Cc1c(NC)nc2c(C)cccn2c1=O`, the “hERG current change (%, negative = inhibition) at 1uM” value was 0.708%. In the case of `COc1cc(C(=O)OCC(=O)Nc2cc(C)on2)c([N+](=O)[O-])cc1OC`, the “hERG current change (%, negative = inhibition) at 1uM” value worked out at 10.4%.

On to `CC(C)COc1ccc(C(=O)Nc2ccc(N3CCOCC3)cc2N2CCOCC2)cc1`, for which the “hERG current change (%, negative = inhibition) at 1uM” value is on record as 2.81%.

As for `O=C(C(O)c1ccccc1)N1N=C(c2ccccc2)CC1(O)C(F)(F)F` (stereo not shown), the “hERG current change (%, negative = inhibition) at 1uM” value is 19.4%.

On to `Cc1ccc(Oc2ccccc2)c(NC=O)c1`, for which the “hERG current change (%, negative = inhibition) at 1uM” value is recorded as 4.03%. In the case of `Cc1occc1C(=O)NCc1ccccc1F`, the “hERG current change (%, negative = inhibition) at 1uM” value was -4.14%.

On to `Cc1ccc(C)c(CSC2=NCCN2C(=O)c2cccs2)c1`, for which the “hERG current change (%, negative = inhibition) at 1uM” value turned out to be 11.7%.

On to `CC(=O)Nc1nnc(S(N)(=O)=O)s1`, for which the “hERG current change (%, negative = inhibition) at 1uM” value is reported as 9.34%. For `COc1ccc(NC(=O)CCC(=O)Nc2cc(OC)c(NC(=O)c3ccco3)cc2OC)c(OC)c1`, the “hERG current change (%, negative = inhibition) at 1uM” value is reported as 18.5%. On to `O=C(Nc1ccccc1)C1C(c2ccccc2)C1(Cl)Cl` (stereo not shown), for which the “hERG current change (%, negative = inhibition) at 1uM” value is reported as 12.8%.

Regarding `Cc1c(N(C)C(=O)c2ccco2)c(=O)n(-c2ccccc2)n1C`, the “hERG current change (%, negative = inhibition) at 1uM” value was determined as 8.4%.

Take `Cc1noc(/C=C/c2ccco2)c1S(=O)(=O)N1CCC(C(=O)N2CCc3ccccc32)CC1`: the “hERG current change (%, negative = inhibition) at 1uM” value came out at 10.8%. With `N#Cc1ccc(NC(=O)COC(=O)CCNS(=O)(=O)c2ccccc2)cc1`, the “hERG current change (%, negative = inhibition) at 1uM” value is -45%. `CCc1ccc(Nc2n[n+](-c3ccccc3)c(-c3ccc(N(CC)CC)cc3)s2)cc1.[Cl-]`: the “hERG current change (%, negative = inhibition) at 1uM” value is given as -9.54%. Turning to `O=C(NC1CCOc2ccccc21)c1ccc(=O)[nH]c1` (stereo not shown), the “hERG current change (%, negative = inhibition) at 1uM” value is listed as 18.5%.

Take `Cc1ccc(N2C(=O)c3cccc(Oc4ccc(Cl)cc4)c3C2=O)c(C)c1`: the “hERG current change (%, negative = inhibition) at 1uM” value was 7.56%.

For the compound `O=C(Nc1cc(N2CCOCC2)ncn1)Nc1cccc2ccccc12`, the “hERG current change (%, negative = inhibition) at 1uM” value is 15.1%. As to `CCc1ccc(S(=O)(=O)N2CCCC(N3CCN(c4ccc(OC)cc4)CC3)C2)cc1` (stereo not shown), the “hERG current change (%, negative = inhibition) at 1uM” value is -3.61%. With `CN(C)CCNC(=O)c1csc(Nc2cccc3ccccc23)n1`, the “hERG current change (%, negative = inhibition) at 1uM” value is recorded as -19.7%. Regarding `COc1cc(OC)cc(C(=O)N[C@H](C(=O)OCC(=O)NC(C)c2ccccc2)C(C)C)c1` (stereo partly shown), the “hERG current change (%, negative = inhibition) at 1uM” value amounted to 1.91%. Consider `COc1cccc(C2CCCN2Cc2nc(CCC(C)C)no2)c1` (stereo not shown), for which the “hERG current change (%, negative = inhibition) at 1uM” value is reported as 10.5%. Consider `CCN1CCN(CCNC(=O)CS(=O)(=O)Cc2nc(-c3ccc(C)cc3)oc2C)CC1`, for which the “hERG current change (%, negative = inhibition) at 1uM” value amounted to 14.4%. On to `Cc1ccc(CNC(=O)C(C)OC(=O)c2cccs2)cc1` (stereo not shown), for which the “hERG current change (%, negative = inhibition) at 1uM” value was found to be 15.9%. Regarding `O=C(CCCNC(=O)c1ccc(Cl)cc1)NCc1ccccc1F`, the “hERG current change (%, negative = inhibition) at 1uM” value is -0.415%. On to `Cc1ccc(C(=O)NC(=S)NNS(=O)(=O)c2ccc(C)cc2)cc1`, for which the “hERG current change (%, negative = inhibition) at 1uM” value was found to be 9.78%.

Turning to `NC1=NC(=O)/C(=C\c2cc([N+](=O)[O-])ccc2Cl)S1`, the “hERG current change (%, negative = inhibition) at 1uM” value is listed as -1.77%. Take `CC(=O)c1cc(C#N)c(NCc2ccccc2)nc1C`: the “hERG current change (%, negative = inhibition) at 1uM” value is recorded as 1.14%. As for `O=C(COC(=O)C12CC3CC(CC(O)(C3)C1)C2)NCCc1ccc(Cl)cc1`, the “hERG current change (%, negative = inhibition) at 1uM” value stood at 7.03%.

In the case of `Cc1cc2cc(CNC(=S)Nc3ccc(OC(F)F)cc3)ccc2n1C`, the “hERG current change (%, negative = inhibition) at 1uM” value was found to be 16.2%.

For the compound `CC(C)OP(=O)(c1ccccc1)c1ccccc1`, the “hERG current change (%, negative = inhibition) at 1uM” value was 3.07%. In the case of `O=C(CC(Cc1ccccc1)C(=O)O)Nc1cccc(C(F)(F)F)c1` (stereo not shown), the “hERG current change (%, negative = inhibition) at 1uM” value turned out to be 24.2%. For the compound `COc1ccc(CCNC(=O)c2cc(=O)n(C)c(=O)n2C)cc1OC`, the “hERG current change (%, negative = inhibition) at 1uM” value came out at 4.78%. Then `Cc1cc(NC(=O)c2nn3cccnc3c2Cl)no1`, with 0.914%; and `O=C(CSc1ccc(Cl)cc1)Nc1ccc(C2SCCS2)cc1`, with 12.1%; and `COC(=O)c1nc(N)sc1-c1ccc(OC)cc1`, with 14.1%. For `O=C(/C=C/c1cccc(Oc2ccccc2)c1)N1CCOCC1`, the “hERG current change (%, negative = inhibition) at 1uM” value is listed as 9.95%. In the case of `Cc1nc2ccc(S(=O)(=O)NCC(=O)NCCN3CCCCC3C)cc2s1` (stereo not shown), the “hERG current change (%, negative = inhibition) at 1uM” value stood at 7.96%. Take `CCOc1ccc(NC(=O)CN(C)C(=O)Cc2c[nH]c3ccccc23)cc1OCC`: the “hERG current change (%, negative = inhibition) at 1uM” value is -0.702%.

`O=C(NCC(=O)N1CCN(c2ccccc2)CC1)c1ccco1`: the “hERG current change (%, negative = inhibition) at 1uM” value was 8.26%. Turning to `COc1cc(C(=O)N(C)Cc2cccc(OC)c2OC)ccc1OCC(=O)Nc1cccc(C(F)(F)F)c1`, the “hERG current change (%, negative = inhibition) at 1uM” value was -0.309%.
